# In PMC12136788:
# Some of the results follow.
# T1: UNK ZnF1-3 (human, UniProt Q9C0B0 31-174)
# T1 sequence: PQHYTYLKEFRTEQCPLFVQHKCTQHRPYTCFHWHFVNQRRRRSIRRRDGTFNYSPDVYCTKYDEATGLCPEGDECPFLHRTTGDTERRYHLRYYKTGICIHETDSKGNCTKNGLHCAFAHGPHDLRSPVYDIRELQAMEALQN
# B1: chr7:135612270:135612271:-_ENSG00000105887_ENST00000393085|hu_hu|motif|central (ssRNA)
# RNA: GGGAGUUCUACAGUCCGACGAUCUUUUCUGAGAUGUUAAGUAUUACUUCAGUGGAGAACAAAACUUACUUAACCUUUCGCGGAUGCAUGUAGUACCAGAAAGCAAACAUGGUUUUAGCUUCCUUUACUCAAAAUAUGAACAUUCAACAGAGGAUUGAGCAUCA
# B2: chr1:46159212:46159213:+_ENSG00000159596_ENST00000372025|hu_mus|hu_hu_hu_mus_True|98_98 (ssRNA)
# RNA: GGGAGUUCUACAGUCCGACGAUCUCUGAUCCCUCCCAAGAAAGAUAGGAAACCGGCUCCAUAAGCCAUCUGAGUGAAAGCUAGGACGGGGAUAUAAGACUUUGUUAUUACCAUGAGAAGUGGGGGAGCAGUAAAGGGGAUUAACAACAGAGGAUUGAGCAUCA
# B3: 49527312_49527432_209_3pUTR_ENSMUSG00000044018_ENSMUST00000057829|mouse|control|control (ssRNA)
# RNA: GGGAGUUCUACAGUCCGACGAUCCUUUAAUAUGAGAUUCCAAGCGACUCUGGAGAUCACUGGGCGGUGUGUAUGCUCGGCUUCGUAAGGGUGGACACACCAAAACAGGUUCUUUUUUCACUUCUUCCACUGUCUCUGCCACAACAACAGAGGAUUGAGCAUCA
# B4: chr8:24301720:24301721:-_ENSMUSG00000031545_ENSMUST00000167004|mus_mus|motif|central (ssRNA)
# RNA: GGGAGUUCUACAGUCCGACGAUCUGCUUCCAAGGUUUUACUUUCCUCCUGCCCCAAAGCAUUCAGCGGGUAAAUUUGUCCGGAAGAUCUGUAUUGUCAGAAGUACCAAGAAGAGUUCGCCUUGGUGCCAGAAGAAUCCUGAAACAACAGAGGAUUGAGCAUCA
# B5: 57929543_57936757_61_3pUTR_ENSG00000175203_ENST00000537439|human|control|control (ssRNA)
# RNA: GGGAGUUCUACAGUCCGACGAUCUCCCCACUCUCUUGUCCUUGAACUUGUCAUAGGCAGCAUUAGGAUUGACAAUGAUGUGUUCCACACUUGUGCUUGUCAGCUCCUCAAGAGUCCUUGAAUCCUCUGUUCCCUGUGCAUACACAACAGAGGAUUGAGCAUCA
# B6: chr5:110835399:110835400:-_ENSG00000164211_ENST00000296632|hu_mus|FALSE|FALSE (ssRNA)
# RNA: GGGAGUUCUACAGUCCGACGAUCAACCAAACAAGGUGCAAAUAAGACUUUUAAGAAAUUGUAAAUGCCCUAUUUACAUAGCCAUGUAUUUUUAAUAGAAAAUGAGAUUGUACUAUGGCCCCAACAACACCUCCAGUGUUUCCACAACAGAGGAUUGAGCAUCA
# B7: chr16:55990476:55990477:+_ENSMUSG00000022601_ENSMUST00000050248|mus_hu|motif|central (ssRNA)
# RNA: GGGAGUUCUACAGUCCGACGAUCUAGCUUAUGUACACUUUCACAAAUCUCUAAGACUUCUGACAUGAAAAGAUGACGAGCGGAGAUGGCUACAUCAGCCAUGCUACAGAAAUCAAAACUUAGUACAGAAGUAUAGGCAAAUUCCAACAGAGGAUUGAGCAUCA
# B8: chr1:118502009:118502010:+_ENSG00000065183_ENST00000349139|hu_mus|FALSE|FALSE (ssRNA)
# RNA: GGGAGUUCUACAGUCCGACGAUCUGUUAAAAUCAUCCUUUUCCUGUUUUUUCGUUUUUUCUUCUUCUCUUCCAAGUGACUAGUAGCUUCUGCAAAAAACAUCACUUCACUCUUUGCUUCACACUCUCUCUUGAGAUAAUCGAGCAACAGAGGAUUGAGCAUCA
# B9: chr5:77764768:77764769:+_ENSMUSG00000029250_ENSMUST00000031167|mus_mus|FALSE|FALSE (ssRNA)
# RNA: GGGAGUUCUACAGUCCGACGAUCGACUCCAAGAAUCAUUGAUGGGUGAAUCUCACAGUGGGUGUAGGUAGAACAAUAAGCUACUUCCUUCUCCUGCAAAUCAUCUGGAGUCAUUGCAAGCAUCACGGUCUCCUCUUCCAGGGUCAACAGAGGAUUGAGCAUCA
# B10: chr9:100410314:100410315:+_ENSG00000136937_ENST00000375147|hu_mus|FALSE|FALSE (ssRNA)
# RNA: GGGAGUUCUACAGUCCGACGAUCGUGCCUCUCCUGCCACCGGUCUUUUUUCAAUUUCUGAAUCUGGGCCCACAGGCAAUCUAAAUACUCUUCCUGUGGAUGUGGUUUGUCGGCAGUCCAGACUUGUAACAUGGGCACGUGAGUCAACAGAGGAUUGAGCAUCA
# B11: 45712936_45714488_62_3pUTR_ENSMUSG00000042790_ENSMUST00000161187|mouse|control|control (ssRNA)
# RNA: GGGAGUUCUACAGUCCGACGAUCGAAGAUUCCGAAGGACUCGGGGUACCGGCCCCAAGGCCAGCUACCUCAGAGGCCGCCAUCUGCACUCUGAGCGGGCGGAGCGGGGGAGGGGGCGGCCAAGCCUGGGGGAGGGGUCGAGCGCAACAGAGGAUUGAGCAUCA
# B12: chr17:57759754:57759755:+_ENSG00000141367_ENST00000269122|hu_hu|FALSE|FALSE (ssRNA)
# RNA: GGGAGUUCUACAGUCCGACGAUCAUCAUAACAACGGUCACCAACUUGUUGGAUAUGAGCAUUAUUUGGUCCAUUGAUAAAUUCUUCUAACUCUGCAAGGCGGUUUGUUUUAGCCAGUGCGAAUAUCAGUUCUGUCUCCACAUACAACAGAGGAUUGAGCAUCA
# B13: chr13:120183613:120183614:-_ENSMUSG00000025453_ENSMUST00000099149|mus_mus|motif|central (ssRNA)
# RNA: GGGAGUUCUACAGUCCGACGAUCGUAGAUGAAGCUAAUUAGAGUUCCUGAUGGCUUUAAAAAGUCAGCUUCGUGAGCGCCGGACGUCGGGUUCACCAUGGGGGCCCUCACUUUGACCACCAGAUCAGAAGCCAGAACUUCCUUCAACAGAGGAUUGAGCAUCA
# B14: chr19:10059387:10059388:+_ENSMUSG00000024661_ENSMUST00000025563|mus_hu|FALSE|FALSE (ssRNA)
# RNA: GGGAGUUCUACAGUCCGACGAUCGCCCGAGGCUUAGCUUUCAUUAUCACUGUCUCCCAGGGUGUGCUUGUCAAAGAGAUAUUCCGCCAAGCCAGAUUCGGGCGCUCCCAUCUUGCGCAAGUUGGUCACGUGGUCACCCAAUUCCAACAGAGGAUUGAGCAUCA
# B15: chr2:224824363:224824364:+_ENSG00000135900_ENST00000258383|hu_mus|motif|central (ssRNA)
# RNA: GGGAGUUCUACAGUCCGACGAUCAGCUUCUUUCUCUAUGCCAAGGCUCUGACGUUUCGCCUCUUCGCUUUUGAUGUAGCAGCGGUUGAUAAAUGCAGUUUUGAGAAGGUCCAACGAAAAGGUUUCUUGUAAGCGAGAUCCAAACAACAGAGGAUUGAGCAUCA
# B16: chr17:74801258:74801259:+_ENSMUSG00000024069_ENSMUST00000024870|mus_hu|FALSE|FALSE (ssRNA)
# RNA: GGGAGUUCUACAGUCCGACGAUCGUUUAUUACACCAAAGAGCAGUAUCUUCCAGGACCUUCGGUCAGCUGCUACAAGUCUAAAUUCCCGUAACAACUUGCCAAAAAAGGAUCUUUGUGGUUUUCGAAAGAGAUGAAUUGUCCCCAACAGAGGAUUGAGCAUCA
# B17: 183518366_183518961_2782_CDS_ENSG00000116698_ENST00000515829|human|control|control (ssRNA)
# RNA: GGGAGUUCUACAGUCCGACGAUCGGAGCUGGAUGUCAGGUUUUUCCCAUAUACCUCAUUGAACAUACUAUUAUUUGGGUAUCUUUCCUGAUUGAGAGAGAAUCCGGUGAGGGACAGGAAAGAGGAUGAAUGUGACAUGAGCUCCAACAGAGGAUUGAGCAUCA
# B18: chr6:52144354:52144355:-_ENSG00000112118_ENST00000229854|hu_mus|FALSE|FALSE (ssRNA)
# RNA: GGGAGUUCUACAGUCCGACGAUCAGCAGGGGCCUUCUCUGGCAUCUCCUGGAUGGUGAUGGUCUGAUGGUCCUUGUAGACAGACAGGCCAUACUCUGUCUCCAGGGGGUUGUUCUCCUCAUCCUUUGUGGGAUAAACAGAACUCAACAGAGGAUUGAGCAUCA
# B19: chr6:13820011:13820012:-_ENSMUSG00000052419_ENSMUST00000155856|mus_mus|FALSE|FALSE (ssRNA)
# RNA: GGGAGUUCUACAGUCCGACGAUCGUUUAGUACAUUUUUAUUAAACUUUUUCUCAGAGAUAAAAGUUUUUGGCUAAGAUCUAAGUACAAUAUCAACUUGCGAGAUAAAAACAGAAGCAUUAAAAAAAAAGAAAACCAGUAACAACAACAGAGGAUUGAGCAUCA
# B20: chr2:216981417:216981418:+_ENSG00000079246_ENST00000392132|hu_hu|hu_hu_hu_mus_True|8_28 (ssRNA)
# RNA: GGGAGUUCUACAGUCCGACGAUCCUGAUACUGGUCCUUGCCAGCAAGGGCAUUAUCAGUGCCAUCUGUGCCAUAGAGGACUAACGCAAUCUCAUCUUUGCUCUCCGCAAACACCUGUCGUUGGACAAACAUGGUUAUCACUUUCAACAGAGGAUUGAGCAUCA
# B21: chr5:72801247:72801248:+_ENSG00000145741_ENST00000335895|hu_hu|FALSE|FALSE (ssRNA)
# RNA: GGGAGUUCUACAGUCCGACGAUCUUAUUAAUCUUUGUUUCAAACUUGAUUCCCAGGCUUCUUCGGCUUAAUUAGCUGCAAAGAAUGAAUUGUGUAUAAGCAAAAACUGAAAAGAGCUGCAGUGUCCAAGGGGCUUGGGCUUAACAACAGAGGAUUGAGCAUCA
# B22: chr12:13295503:13295504:+_ENSMUSG00000020576_ENSMUST00000042953|mus_mus|FALSE|FALSE (ssRNA)
# RNA: GGGAGUUCUACAGUCCGACGAUCUCCCCGGUAAUUGAUGACCAAGAGCUCUGCAGACCACUGUGCACUGGCUUUGUAUUCUAAAAAUACCAACCCAGCAAUGGCGUAGCUUAAGUCCCCAGCAAAGACAGAUGCCGGGGCAAUCAACAGAGGAUUGAGCAUCA
# Molecular target: T1, UNK ZnF1-3
# Assay: nsRBNS (natural sequence RNA bind-n-seq); RBNS binding buffer (assumed for nsRBNS): 25 mM Tris pH 7.5, 150 mM KCl, 3 mM MgCl2, 0.01% Triton X-100, 500 ug/ml BSA, 20 U/ml SUPERase-In, 4 C; UNK is unkempt and MSI1 is Musashi-1; names of the RNAs are library labels; protein concentration not given here; high values mean tight binding
row,Binder,binding signal [enrichment R]
1,B1,0.65
2,B2,1.26
3,B3,0.889
4,B4,0.805
5,B5,0.695
6,B6,1.36
7,B7,0.939
8,B8,0.687
9,B9,0.96
10,B10,0.723
11,B11,1.17
12,B12,1.6
13,B13,0.932
14,B14,0.782
15,B15,1.02
16,B16,0.709
17,B17,1.35
18,B18,0.332
19,B19,1.38
20,B20,0.716
21,B21,1.3
22,B22,0.905
